The list shows a part of the results. The energies were worked out here from pooled read counts, against the library average; single values are noisy.
These sequences were tested against T1, Pho4 (S. cerevisiae) (UniProt P07270) (assay: relative binding free energy (BET-seq); higher = weaker binding). Settings: reference: library average.
T1 sequence: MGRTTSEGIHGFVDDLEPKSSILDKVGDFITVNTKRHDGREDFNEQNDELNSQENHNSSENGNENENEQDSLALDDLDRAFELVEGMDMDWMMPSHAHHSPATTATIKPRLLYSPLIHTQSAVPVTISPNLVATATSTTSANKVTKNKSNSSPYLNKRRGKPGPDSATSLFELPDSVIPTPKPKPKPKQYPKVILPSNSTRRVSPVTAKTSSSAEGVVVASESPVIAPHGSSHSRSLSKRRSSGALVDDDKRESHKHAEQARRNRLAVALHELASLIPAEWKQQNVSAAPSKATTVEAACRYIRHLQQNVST

Sequence	relative binding free energy
TGGTGCACGTGCTGAT	-0.09 kcal/mol
ATATACACGTGAGGTA	0.21 kcal/mol
ATGTTCACGTGGTCGC	0.28 kcal/mol
GATGGCACGTGTTACG	-0.05 kcal/mol
GATGACACGTGATGTG	0.12 kcal/mol
GGGTTCACGTGCGTAG	0.23 kcal/mol
ATCGTCACGTGTATGT	0.15 kcal/mol
GGTTTCACGTGAGCGA	0.27 kcal/mol
ATGTTCACGTGGAGGA	0.29 kcal/mol
AAGTTCACGTGATCGT	0.18 kcal/mol
ATATTCACGTGTATCT	0.17 kcal/mol
ATAAGCACGTGGGATA	-0.14 kcal/mol
CATTTCACGTGTGTAT	0.2 kcal/mol
ATGTACACGTGATGGA	0.14 kcal/mol
ATTGACACGTGCGTGG	0 kcal/mol
AGAATCACGTGGGTGC	0.07 kcal/mol
ATTAACACGTGATATG	0.04 kcal/mol
CTTATCACGTGATATG	0.18 kcal/mol
TTTGGCACGTGTAACG	0.03 kcal/mol
AATCGCACGTGTTTGA	0 kcal/mol
GGGGACACGTGCGTGT	0 kcal/mol
TGAGGCACGTGTTGCG	0.05 kcal/mol
GGTGACACGTGAAGGT	0.22 kcal/mol
CGCGGCACGTGGTGTG	-0.21 kcal/mol
GTTTACACGTGTGTTG	0.21 kcal/mol
AGTGACACGTGAGGCA	0.13 kcal/mol

Sequence	relative binding free energy
TATAACACGTGCGGTA	0.05 kcal/mol
GAGGGCACGTGTTTGA	0.05 kcal/mol
GTTGGCACGTGTTTCC	0.16 kcal/mol
ATCGTCACGTGTAGGT	0.05 kcal/mol
ATTGCCACGTGGGGAG	-0.27 kcal/mol
ATGGTCACGTGAGTAC	0.18 kcal/mol
GTGGTCACGTGCCTGG	-0.02 kcal/mol
AATGTCACGTGCTTGT	0.07 kcal/mol
TTTGTCACGTGCAATA	0.11 kcal/mol
ATACTCACGTGGTTTG	0.1 kcal/mol
TGGTGCACGTGAGAGG	0.23 kcal/mol
GTTTGCACGTGTCGTA	0.1 kcal/mol
TGTTTCACGTGCGCGG	0.23 kcal/mol
TCGATCACGTGTAGTT	0.28 kcal/mol
TGGGGCACGTGTTTAC	-0.1 kcal/mol
GGGCGCACGTGATGAG	0.21 kcal/mol
AATTACACGTGGCTGG	0.07 kcal/mol
TGCTCCACGTGGGTGT	-0.06 kcal/mol
GAATGCACGTGGTTCA	0.14 kcal/mol
CAGCGCACGTGGTGGT	-0.18 kcal/mol
ATTGGCACGTGTATGT	-0.21 kcal/mol
ATAAGCACGTGTGTGC	-0.18 kcal/mol
AATTTCACGTGGGCGT	0.23 kcal/mol
CGGTTCACGTGTTGGT	0.27 kcal/mol
AGTCGCACGTGGGGTA	-0.29 kcal/mol
TTTGTCACGTGTTTGA	0.08 kcal/mol

Sequence	relative binding free energy
GTCGACACGTGTGTTT	0.14 kcal/mol
AATTTCACGTGTTTAG	0.17 kcal/mol
AGTGTCACGTGGAATC	0.26 kcal/mol
AGTGTCACGTGTTCCG	0.09 kcal/mol
CGAGTCACGTGAGTTG	0.36 kcal/mol
CGTTACACGTGTTGTT	0.11 kcal/mol
AGGGTCACGTGGGCTC	-0.02 kcal/mol
ATGTGCACGTGTTAGG	-0.02 kcal/mol
TGGGCCACGTGCGGGA	-0.26 kcal/mol
CGTCTCACGTGGTATG	0.15 kcal/mol
TTGGGCACGTGGGCTT	-0.21 kcal/mol
GGGGTCACGTGCGCGG	0.1 kcal/mol
TATCGCACGTGGTGCT	-0.11 kcal/mol
TTAGACACGTGGTCTA	-0.08 kcal/mol
GGTGGCACGTGGTATG	-0.14 kcal/mol
ATTTTCACGTGTCGGT	0.36 kcal/mol
GGGTGCACGTGAGACG	0.19 kcal/mol
CGTAGCACGTGAGTGA	0.08 kcal/mol
TATTGCACGTGTAATG	-0.03 kcal/mol
AAGCGCACGTGGTAGG	-0.15 kcal/mol
GGTGTCACGTGGTATA	0.17 kcal/mol
GGGGGCACGTGTTGAC	0.02 kcal/mol
GGGTGCACGTGCATGA	0.01 kcal/mol
ATTAGCACGTGTATGT	-0.05 kcal/mol
AAGTTCACGTGCGTGC	0.18 kcal/mol
TTGGCCACGTGGGGCA	-0.2 kcal/mol

Sequence	relative binding free energy
TGCATCACGTGGTTTT	0.1 kcal/mol
ATGGACACGTGCGTGA	0 kcal/mol
AGAGTCACGTGTCGTT	0.06 kcal/mol
TGGAACACGTGATCGT	0.14 kcal/mol
GGGTACACGTGACGGC	0.5 kcal/mol
CGTCGCACGTGTAGGT	-0.18 kcal/mol
GACGGCACGTGATGAG	0.22 kcal/mol
TAGTGCACGTGTACTT	-0.02 kcal/mol
TTTCGCACGTGAGATA	0.28 kcal/mol
AATTTCACGTGGTTGC	0.22 kcal/mol
CGTTGCACGTGTATAG	0.12 kcal/mol
ATGCGCACGTGTGGGC	-0.05 kcal/mol
TATATCACGTGTTTTA	0.1 kcal/mol
TTCATCACGTGATTAG	0.1 kcal/mol
ATTTTCACGTGTAGCA	0.21 kcal/mol
TTTACCACGTGCGTGT	-0.09 kcal/mol
GTTGGCACGTGTCTGG	0.05 kcal/mol
TGGTGCACGTGCGTGA	-0.05 kcal/mol
GGTAGCACGTGTATTA	0 kcal/mol
GGTTTCACGTGAAGGT	0.4 kcal/mol
TTAAACACGTGAAAGG	0.29 kcal/mol
GCGGTCACGTGTGGTT	0.18 kcal/mol
GGGTCCACGTGGAGGG	-0.07 kcal/mol
TTTTACACGTGAACGT	0.17 kcal/mol
TAAATCACGTGATGAG	0.3 kcal/mol
ATTGCCACGTGTGTTG	-0.12 kcal/mol

Sequence	relative binding free energy
GGGAGCACGTGCAGGG	-0.02 kcal/mol
TTGAGCACGTGCTAGG	-0.2 kcal/mol
ATGTGCACGTGTAGGT	0.01 kcal/mol
GTCTGCACGTGGAAGG	0.02 kcal/mol
TTGAACACGTGCTGTG	-0.07 kcal/mol
GGTTTCACGTGTGCTA	0.32 kcal/mol
TGTGTCACGTGGGTCC	-0.13 kcal/mol
TTTTGCACGTGAGATA	0.02 kcal/mol
GTGAGCACGTGAGAGT	0.11 kcal/mol
CGTGGCACGTGAGAGG	0.13 kcal/mol
CTGATCACGTGAGGTT	0.45 kcal/mol
ATCTCCACGTGTAGGG	0.07 kcal/mol
TAATGCACGTGGAGTC	0.13 kcal/mol
TACGGCACGTGGGTAA	-0.15 kcal/mol
GGGTTCACGTGAGGGC	0.42 kcal/mol
GAGGTCACGTGACGTA	0.4 kcal/mol
TTATGCACGTGGTGAA	-0.14 kcal/mol
AGTTGCACGTGGAAGG	-0.06 kcal/mol
GTCATCACGTGTGTTG	0.17 kcal/mol
GGGGGCACGTGCAGGC	-0.06 kcal/mol
GACTACACGTGGGGGT	0.1 kcal/mol
GTTTGCACGTGGTCCG	0.05 kcal/mol
TCCTGCACGTGTAGGT	-0.07 kcal/mol
TTTTTCACGTGTCTGA	0.31 kcal/mol
TAGGTCACGTGCATTG	0.17 kcal/mol
GTTGCCACGTGTTCGG	0.11 kcal/mol

Sequence	relative binding free energy
ATTAGCACGTGCGTTG	-0.13 kcal/mol
TGTGACACGTGCTGTT	-0.01 kcal/mol
TATTTCACGTGCTGTC	0.4 kcal/mol
GGTCGCACGTGCCGGG	-0.18 kcal/mol
ATAACCACGTGGGTTG	-0.26 kcal/mol
CGGTGCACGTGGCGGC	-0.17 kcal/mol
GGCGTCACGTGTTGTA	0.15 kcal/mol
CTTGGCACGTGTTTAG	-0.03 kcal/mol
TCTGGCACGTGTTTCT	0 kcal/mol
ATGGACACGTGGCGTT	-0.1 kcal/mol
CGAGGCACGTGGCTGT	0.01 kcal/mol
TTCATCACGTGAGTGT	0.28 kcal/mol
TGATTCACGTGTTTAT	0.22 kcal/mol
TTCATCACGTGGGATT	0 kcal/mol
TAGGTCACGTGATCGG	0.26 kcal/mol
TAAGGCACGTGAGTTC	0.08 kcal/mol
GTTATCACGTGCGGAT	0.08 kcal/mol
GGAAGCACGTGGGGGT	-0.19 kcal/mol
GAGGTCACGTGAAGTA	0.45 kcal/mol
TTGGACACGTGGTGAA	0.04 kcal/mol
TGGTTCACGTGCGGTA	0.22 kcal/mol
GTTGGCACGTGTTTTG	0.1 kcal/mol
GTGAACACGTGCGAGT	0.02 kcal/mol
TTCGACACGTGTGGGC	0.27 kcal/mol
AGCCGCACGTGTGTGG	-0.1 kcal/mol
TAAATCACGTGATAGT	0.1 kcal/mol

Sequence	relative binding free energy
CTATACACGTGGGTTG	-0.24 kcal/mol
GGTATCACGTGATAGG	0.29 kcal/mol
TCGTTCACGTGTGCAG	0.28 kcal/mol
AGACTCACGTGTTGTA	0.34 kcal/mol
GTTGGCACGTGGAGTG	0.03 kcal/mol
GCGAGCACGTGGTTAT	-0.03 kcal/mol
GGTATCACGTGGTAGG	0.14 kcal/mol
CGCGGCACGTGGGGGC	-0.25 kcal/mol
ATTCGCACGTGTTAAG	0.03 kcal/mol
GTCGACACGTGTTGAT	0.14 kcal/mol
GTGCTCACGTGAATGT	0.51 kcal/mol
GGAAACACGTGGTCGG	-0.06 kcal/mol
GTAGGCACGTGGTAGT	-0.17 kcal/mol
CCGGGCACGTGTTAGT	0 kcal/mol
GATCTCACGTGATGGT	0.22 kcal/mol
AAGTACACGTGGTCTT	-0.05 kcal/mol
GGGTTCACGTGTCAGG	0.36 kcal/mol
GTTGCCACGTGGCTGT	0.07 kcal/mol
GGATTCACGTGGAAGG	0.24 kcal/mol
TGTGTCACGTGAGGTG	0.29 kcal/mol
AGTAACACGTGTTTAG	0.04 kcal/mol
GGTGGCACGTGAAGAA	0.15 kcal/mol
ATTGACACGTGAGATT	0.3 kcal/mol
CTGTTCACGTGCGATG	0.38 kcal/mol
TTCGACACGTGGTTTG	0.05 kcal/mol
AGCTGCACGTGATAGG	0.2 kcal/mol

Sequence	relative binding free energy
CTGGCCACGTGTGAGG	0.09 kcal/mol
ATGTGCACGTGCGTTT	-0.14 kcal/mol
TGTTTCACGTGAGCAT	0.25 kcal/mol
CATGTCACGTGTGGTT	0.2 kcal/mol
ATGAGCACGTGGTGTA	-0.15 kcal/mol
GATTTCACGTGGGCTA	0.33 kcal/mol
GTGAGCACGTGATAGC	0.17 kcal/mol
ACGGGCACGTGAGGTT	0.15 kcal/mol
CGTGGCACGTGGGCGA	-0.22 kcal/mol
GAATTCACGTGAGGGA	0.56 kcal/mol
GGTGGCACGTGGTCAA	-0.15 kcal/mol
CGATGCACGTGCAGGG	-0.07 kcal/mol
AGGATCACGTGGAATG	0.16 kcal/mol
ATAGACACGTGAATTG	0.29 kcal/mol
GTTGGCACGTGGGATT	-0.03 kcal/mol
TTGTGCACGTGTTCGC	0 kcal/mol
ATAGTCACGTGATTTC	0.16 kcal/mol
TGAAGCACGTGTCTAG	0 kcal/mol
TGTGCCACGTGGAAGT	-0.07 kcal/mol
CGAAGCACGTGAGGGT	0.08 kcal/mol
CAGTTCACGTGGGATT	0.16 kcal/mol
TGACTCACGTGTGATT	0.27 kcal/mol
TTGTTCACGTGCAATA	0.32 kcal/mol
CGGTACACGTGTGGTA	0.1 kcal/mol
ATGTGCACGTGGATAG	-0.15 kcal/mol
GGTTACACGTGGGTGA	0.04 kcal/mol

Sequence	relative binding free energy
TAATCCACGTGAGGGT	0.15 kcal/mol
TGGGCCACGTGATATG	0.06 kcal/mol
AAGATCACGTGGGCAT	0.11 kcal/mol
TGGAGCACGTGGTGTT	-0.09 kcal/mol
CCGGGCACGTGGTGAT	-0.1 kcal/mol
TTTAACACGTGGGCTA	-0.1 kcal/mol
AACGGCACGTGGAGTG	-0.1 kcal/mol
ATCGGCACGTGTTTAG	-0.03 kcal/mol
TCTTTCACGTGTTGTG	0.18 kcal/mol
GGGTTCACGTGAAATT	0.47 kcal/mol
ATTAGCACGTGTACGG	0.07 kcal/mol
AGGTTCACGTGAGGCG	0.36 kcal/mol
GTAGTCACGTGTGAGA	0.15 kcal/mol
AGGATCACGTGTTAGC	0.21 kcal/mol
GTATCCACGTGTTTTG	0.01 kcal/mol
AGGGTCACGTGTTCAT	0.09 kcal/mol
CTTGTCACGTGATTGT	0.22 kcal/mol
GGTTTCACGTGAGGCA	0.39 kcal/mol
GTGTACACGTGTTGTG	0.1 kcal/mol
TTTTTCACGTGGTGAT	0.31 kcal/mol
AGTGGCACGTGAACGG	0.16 kcal/mol
AGGATCACGTGTGCTG	0.14 kcal/mol

Source: the BET-seq Pho4 binding data (Le et al. 2018)
